Measured values reported in PubChem BioAssay AID624418 (National Center for Advancing Translational Sciences (NCATS), 2012).
The campaign covered roughly 410,000 compounds. About 530 (0.13%) were called active. This list was built around the results that the source calls inconclusive (neither active nor inactive); the mix of calls is not that of the screen. Calls come from the whole dose curve; as a rule, active = well fitted inhibition curve with a large enough effect; inconclusive = small, poorly fitted or top-dose-only effect, or another doubt; inactive = no such curve, though single readings can be large or run the other way. A potency beside an inconclusive call is a rough fit, not a confirmed value.

Assay: qHTS of GLP-1 Receptor Inverse Agonists: Cytotox Screen
Conditions: HEK293 cAMP-luciferase reporter cells, luminescence, 24 h; series mostly up to 38.3 µM
Summary of the method: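 MLSMR compounds, 24 hr on cells at 37 deg C/5% CO2; luminescence after luciferase reagent (12 min RT). Inhibition counted as the undesired cytotoxic outcome.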
Potency is the fitted concentration of half-maximal effect.

Structure (SMILES)	Potency
CCOc1ccc(C(=O)NCCc2sc(-c3ccc(F)cc3)nc2C)cc1	inactive
CN(CC(=O)Nc1ccccc1C(F)(F)F)Cc1c(O)ccc2ccccc12	inactive
Cc1ccc(S(=O)(=O)Cn2nnnc2C(C(C)C)N2CCSCC2)cc1 (configuration not stated)	inactive
O=C(Cn1ncc(Cl)c(Cl)c1=O)Nc1ccc2c(c1)OCO2	inconclusive: 11.2 µM [inhibitor, partial curve, poor fit]
CN(CC(=O)Nc1cccc(F)c1)C(=O)c1cc(-c2cccs2)nn1-c1ccccc1	inconclusive: 28.2 µM [inhibitor, single point]
Cc1ccc2nc(N=C(N)N)nc(C)c2c1	inconclusive: 12.6 µM [inhibitor, single point]
COc1cccc(/C=N/NC(=O)c2c(-c3ccccc3)noc2C)c1O	inconclusive: 0.501 µM [inhibitor, full curve, poor fit]
CCOC(=O)c1ccccc1NC(=O)Cn1c(=O)n(-c2ccc(CC)cc2)c(=O)c2c(C)c(C(=O)N(C)C)sc21	inactive
COc1ccc(NC(=O)C(=O)NNC(=O)c2cccs2)c(OC)c1	inactive
COc1ccccc1N1CCN(Cc2ccc(O)c3ncccc23)CC1	inconclusive: 0.501 µM [inhibitor, full curve, poor fit]
O=C(O)CN1C(=O)/C(=C\c2cc(Br)ccc2OCc2ccc(F)cc2)SC1=S	inconclusive: 28.2 µM [inhibitor, single point]
COc1ccc(-c2ccc3[nH]c4c(c3c2)CCN2C(=O)[C@@H]([C@H](C)O)[C@@H](N(C)C(=O)Nc3ccccc3)C[C@@H]42)cc1	inconclusive: 28.2 µM [inhibitor, single point]
CCN1C(=O)N[C@@H](c2ccc(Br)cc2)C(C(=O)OC)=C1C	inconclusive: 11.2 µM [inhibitor, single point]
CN1CCN(C(=O)CCN2C(=O)/C(=C\c3ccc(Cl)cc3Cl)SC2=S)CC1	inconclusive: 28.2 µM [inhibitor, partial curve, poor fit]
Cc1ccc2cccc(NC(=S)NC(=O)c3ccnn3C)c2n1	inconclusive: 11.2 µM [inhibitor, single point]
CCOC(=O)CSc1ccc(-c2nc3ccccc3[nH]2)cn1	inactive
COCCNC(=O)c1cccc(OC2CCN(Cc3ccc(C(=O)OC)cc3)CC2)c1	inactive
C[C@@H]1CN([C@H](C)CO)C(=O)CCCn2nncc2CO[C@H]1CN(C)Cc1ccc2c(c1)OCO2	inactive
O=C(/C=C/c1ccco1)NC(=S)Nc1cccc([N+](=O)[O-])c1	inconclusive: 7.94 µM [inhibitor, partial curve, poor fit]
O=C(c1ccccc1)c1ccc2nc(-c3ccco3)c(-c3ccco3)nc2c1	inactive
CCOC(=O)CNC(=O)N(C)[C@H]1C[C@H]2c3[nH]c4ccccc4c3CCN2C(=O)[C@H]1[C@H](C)O	inactive

Structure (SMILES)	Potency
Fc1ccc(NCc2nnc(SCc3nnc(-c4ccccc4)o3)n2Cc2ccccc2)cc1	inconclusive: 14.1 µM [inhibitor, single point]
COc1cc2c(cc1OC)C(C)N(CC(=O)Nc1ccc(S(=O)(=O)N3CCCC3)cc1)CC2 (configuration not stated)	inconclusive: 28.2 µM [inhibitor, single point]
Cc1cccc(NC(=O)Cn2c(=O)n(Cc3ccccc3)c(=O)c3c(C)c(C)sc32)c1	inconclusive: 31.6 µM [inhibitor, single point]
C/C(=N/NS(=O)(=O)c1ccc(Cl)cc1)c1cccc(NC(=O)c2ccc(Cl)cc2Cl)c1	inactive
NS(=O)(=O)c1cccc(NC(=O)C(Cc2ccccc2)NC(=O)c2ccccc2)c1 (configuration not stated)	inconclusive: 28.2 µM [inhibitor, single point]
COc1ccc(C(=O)Oc2cccc3cccnc23)cc1[N+](=O)[O-]	inconclusive: 5.01 µM [inhibitor, full curve, poor fit]
O=C(NC(=S)N1CCN(c2ccc(F)cc2)CC1)c1cccs1	inconclusive: 2.82 µM [inhibitor, full curve]
CCOc1ccc(CCNC(=O)COC(=O)c2cc([N+](=O)[O-])ccc2N2CCOCC2)cc1OCC	inconclusive: 1 µM [inhibitor, full curve, poor fit]
CN(C)C(CNC(=O)c1ccco1)c1cccs1 (configuration not stated)	inactive
O=C1C(=O)N(Cc2cccnc2)C(c2cccc(F)c2)/C1=C(/O)c1ccc2c(c1)OCO2 (configuration not stated)	inconclusive: 3.16 µM [inhibitor, full curve, poor fit]
Cc1ccc(CNC(=O)CCc2c(C)nc3nc(C)nn3c2C)cc1	inactive
CCOC(=O)c1sc(NC(=S)NC(=O)CC(C)C)cc1C	inconclusive: 15.8 µM [inhibitor, single point]
CCc1ccc(NC(=S)Nc2cc(C(=O)O)ccc2N2CC3CC(C2)c2cccc(=O)n2C3)cc1 (configuration not stated)	inactive
Cc1ccc(S(=O)(=O)N2[C@@H](c3ccccc3)C(C(=O)O)=CC[C@H]2c2ccc(Cl)c(Cl)c2)cc1	inconclusive: 28.2 µM [inhibitor, single point]
O=C(Nc1cc([N+](=O)[O-])ccc1O)c1cccc([N+](=O)[O-])c1	inconclusive: 10 µM [inhibitor, single point]
COc1ccc(NC(=O)c2cccc3c2C(=O)c2ccc(-c4ccc(F)cc4OCc4ccccc4)cc2S3(=O)=O)cc1	inconclusive: 2.24 µM [inhibitor, full curve, poor fit]
CCOc1ccc(-c2cc(C(=O)NCc3ccccc3Cl)c3ccccc3n2)cc1	inactive
COc1ccc(-c2n[nH]c(=S)n2-c2ccccc2C)cc1	inconclusive: 3.55 µM [inhibitor, single point]
CCCC1C(=O)Nc2ccccc2N1C(=O)c1ccc(C(C)(C)C)cc1 (configuration not stated)	inconclusive: 28.2 µM [inhibitor, single point]
O=C(Nc1ccccc1)c1nnsc1S(=O)c1ccc(Cl)cc1 (configuration not stated)	inconclusive: 12.6 µM [inhibitor, single point]
Clc1ccc2ncc(-c3nnnn3-c3ccccc3)c(-c3ccccc3)c2c1	inconclusive: 11.2 µM [inhibitor, single point]
